Source: PubChem BioAssay AID493208 (National Center for Advancing Translational Sciences (NCATS), 2011)
In all, about 44,000 compounds went through this assay and about 340 (0.77%) were called active. Inconclusive results (about 5%) are left out. Calls follow the shape of the dose curve; as a rule, active = well fitted inhibition curve with a large enough effect; inconclusive = small, poorly fitted or top-dose-only effect; inactive = flat fitted curve, though single readings scatter. The list shows a part of the results.

Assay: Acumen qHTS Assay for Inhibitors of the mTORC1 Signaling Pathway in MEF (Tsc2-/-, p53-/-) Cells: Sytravon; also: nearly all actives have a fitted effect of over 50% in size;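 as to activity change, negative = inhibition: plate controls were DMSO for no effect and rapamycin for full effect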
Details: phospho-rpS6 immunofluorescence/PI, 24 h; series mostly up to 38.3 µM; activity change, negative = inhibition: at the top concentration
Summary of the method: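 Immunofluorescence of rpS6 phosphorylation in Tsc2-/-, p53-/- MEFs after 24 h compound exposure, normalized to propidium iodide signal. Activity is expressed as % positive cells, thresholded with 7.5 nM rapamycin.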
Potency is read from the fitted curve at half-maximal effect.

Activity change, negative = inhibition, inactive:
COCCn1c(SCC(=O)Nc2ccc(F)c(Cl)c2)nc2c(oc3ccccc32)c1=O -1.58%, COc1ccc(C(=O)NCCc2sc(-c3cccc(F)c3)nc2C)cc1 -2.65%, Cc1nc2ccn(Cc3cccnc3)c(=O)c2cc1C(=O)Nc1ccc(OC(F)(F)F)cc1 -22.1%, Cc1ccccc1NS(=O)(=O)c1ccc2[nH]cc(C(=O)N3CCCC3)c(=O)c2c1 -0.655%, CCOC(=O)C1=C(CN2CCN(c3ccccc3)CC2)NC(=O)NC1c1ccc(C)cc1 (stereo unspecified) -2.86%, COc1cccc(C(=O)NC(=O)Nc2ccc(-c3cc(C(F)(F)F)nn3-c3ccccc3)cc2)c1 -12.9%, Cc1sc2ncn(CC(=O)Nc3cccc(C(F)(F)F)c3)c(=O)c2c1S(=O)(=O)N1CCC(C)CC1 5.63%, O=C(Nc1ccccc1C(=O)OCc1cc(=O)n2nc(C3CC3)sc2n1)c1cccc(Cl)c1 1.76%, Cc1ccc(Cl)cc1NC(=O)Cn1c(=O)c(CNc2ccccc2)cc2cc3c(cc21)OCCO3 -2.03%, CCCCn1c(-c2ccc(S(=O)(=O)N3CCOCC3)cc2)csc1=Nc1ccccc1 -2.61%, Cc1cccc(Cn2c(CN3CCC(C(=O)NCCc4ccccc4)CC3)cc3ccccc32)c1 -9.47%, COc1ccc(-c2c(C)nn3c4c(cnc23)C(=O)CC(c2ccc(C)cc2)C4)cc1 (stereo unspecified) -1.82%, CCN(c1cccc(C)c1)S(=O)(=O)c1nnc(NC(=O)c2cccs2)s1 14%, Cc1c(C(=O)Nc2ccccc2Br)oc2ccc(S(=O)(=O)N3CCCCC3)cc12 9.97%, CCC(=O)Nc1nnc(S(=O)(=O)N(C)Cc2ccccc2)s1 1.58%, COc1cccc(NC(=O)Cn2c(=O)n(-c3ccc(CC(=O)NCC4CCCO4)cc3)c(=O)c3ccccc32)c1 (stereo unspecified) -7.47%, CCOc1ccccc1NC(=O)c1cccc2c1C(=O)N(C1CCCCC1)C2 -8.69%, Cc1cc(C)cc(NC(=O)NCCn2nnc3cc(S(=O)(=O)N(C)C)ccc32)c1 0%, CSc1ncc(Cl)c(C(=O)N(Cc2ccccc2Cl)C2CCS(=O)(=O)C2)n1 (stereo unspecified) 1.04%, CCOc1ccc(C(=O)OCc2cc(=O)n3nc(C4CCCCC4)sc3n2)cc1 -6.71%, CCCN1C(=O)C(NC(=O)c2ccccc2OC)(C(F)(F)F)C(C(=O)OC)=C1C (stereo unspecified) 0.413%, CCOc1ccc(NC(=O)Cc2csc(COc3cccc(C)c3)n2)cc1 0.381%, CCOc1ccccc1C1C(C(=O)Nc2ccccc2OC)=C(C)Nc2nc3ccccc3n21 (stereo unspecified) 2.47%, Cc1ccc2nc(NC(=O)c3cc(=O)c4cc(C)c(C)cc4o3)sc2c1 3.57%, CSc1ccc(CNC(=O)CCn2ccc3cc(S(=O)(=O)N4CCCC4)ccc32)cc1 -6.5%, CCOc1ccc(NC(=O)Cn2c(C)ccc(C#N)c2=O)cc1 0.381%, CCc1nnc2c3ccccc3nc(N3CCN(c4ccc(C)cc4C)CC3)n12 1.62%, COc1ccccc1CNC(=O)c1ccc(C)c(-n2cnc3cccnc32)c1 -14.8%, Cc1cc(Br)ccc1NC(=O)c1cc2c(s1)-c1ccccc1SC2 -1.31%, O=C(CCCn1c(=O)c2cccn2c2cccnc21)NCCc1ccc(Cl)cc1 0.781%, CCOC(=O)c1ccccc1NC(=O)CN(c1ccccc1OC)S(=O)(=O)c1ccc(C)cc1 -0.178%, COc1ccc(CN2C(=O)C(NC(=O)c3ccc(C)cc3)(C(F)(F)F)N=C2c2ccccc2)cc1 (stereo unspecified) 3.97%, COc1ccccc1NC(=O)CSc1nc2c(oc3ccccc32)c(=O)n1-c1ccc(C)cc1 -4.91%, CCOC(=O)N1CCc2c(sc3c2c(=O)n(-c2ccc(Cl)cc2)c(=O)n3CC(=O)c2ccc(F)cc2)C1 0.0741%, COc1ccc(NS(=O)(=O)c2nnc(NC(=O)c3ccccc3F)s2)cc1 6.01%, COc1ccc(-n2ccnc(NCCc3ccc(S(N)(=O)=O)cc3)c2=O)cc1 5.85%, COc1cc(/C=C/c2nc(C#N)c(NC3CCCCC3)o2)cc(OC)c1OC 1.57%, Cc1ccc(CNc2nc3c(S(=O)(=O)c4ccccc4)nnn3c3ccsc23)cc1 0.694%, CCNC(=O)CCSc1nnc(-c2ccc(O)cc2)o1 -1.21%, CCC(Oc1ccc(F)cc1)C(=O)Nc1cc(-c2ccc(C)cc2)no1 (stereo unspecified) -1.34%, COc1cccc(CNC(=O)Nc2cc(C(=O)NCc3cccc(F)c3)ccc2N2CCCC2)c1 0%, CCN(CC)c1ccc(NC(=O)c2cc(CN3CCCC3)on2)c(C)c1 0%, Cn1c(=O)c2ccccc2n2c(CCC(=O)N3CCN(c4cccc(Cl)c4)CC3)nnc12 0.1%, CCOc1ccc(NC(=O)CC2C(=O)N(c3cccc(OC)c3)C(=O)N2C2CCCCC2)cc1 (stereo unspecified) 1.41%, COc1ccc2c(C)c(CC(=O)NCCc3ccccc3)c(=O)oc2c1OC 2.63%, COc1ccccc1C(=O)Nc1cc(-c2cccc(Br)c2)nn1-c1ccccc1 -21.5%, Cc1cc(C)cc(N2C(=O)CC(c3ccc(C(F)(F)F)cc3)C3=C2COC3=O)c1 (stereo unspecified) -2.84%, COc1ccc(Cl)cc1NC(=O)C(C)n1nnc2sc3c(c2c1=O)CCCC3 (stereo unspecified) 1.41%, Cc1cccc(NC(=O)CSc2nc(-c3cccs3)cc(C(F)(F)F)c2C#N)c1 -3.27%, CCN1CCN(c2csc3ccc(Cl)cc3c2=O)CC1 3.48%, CCCCn1c(Oc2cccc(C(=O)OC)c2)nc2c1c(=O)n(C)c(=O)n2C -2.54%, COc1ccc(Cn2c(SCC(=O)NCc3ccccc3)nc3ccccc32)cc1 6.75%, Cc1ccc(C(=O)NCC(=O)OCc2cc(=O)n3nc(C4CCCCC4)sc3n2)cc1 1.93%, CCOc1ccc(NC(=O)Cn2nnc(C(=O)OC)c2C(=O)OC)cc1 -5.38%, COc1ccc(C(=O)NC2(C(F)(F)F)C(=O)NC(C)=C2C#N)cc1 (stereo unspecified) 0.309%, Cc1ccc2c(c1)C(c1ccc(F)cc1)N(C(=O)C(C)C)CC(=O)N2 (stereo unspecified) 0%, CCc1cccc(NC(=O)Cn2nc(CC)n3c(cc4cc(C)ccc43)c2=O)c1 -12.5%, O=c1oc2ccc3ccccc3c2cc1-c1nnc(Nc2ccccc2)s1 -4.66%, Cc1cc(S(=O)(=O)Nc2cccc(-c3ccc(N4CCOCC4)nn3)c2)c(C)cc1Cl -7.08%, COc1cccc(NC(=O)CSc2nc(O)c(C/C=C/c3ccccc3)c(=O)[nH]2)c1 0.333%, COc1ccc(N2CCN(S(=O)(=O)c3ccc(-c4cc(C(F)(F)F)on4)s3)CC2)cc1 -5.2%, Cc1ccc(CCNC(=O)c2sc3ncccc3c2-n2cccc2)cc1 -6.41%, COc1cc(NC(=O)c2nc3cc(C)c(C)cc3n(C)c2=O)cc(OC)c1OC 2.26%, CCC(=O)Nc1cc(C(=O)NCc2ccc(C)cc2)ccc1S(=O)(=O)c1ccc(C)cc1 -2.55%, Cc1ccc(C)c(CN2C(=O)c3ccccc3Sc3ccc(C(=O)NCc4ccco4)cc32)c1 -0.269%, Cc1cccc(OCc2ccc(-c3nc(C#N)c(N4CCN(c5ccccc5)CC4)o3)o2)c1 3.14%, Cc1cc(C)c2oc(C(=O)Nc3c(C(=O)c4ccc(F)cc4)oc4ccccc34)cc(=O)c2c1 -5.56%, CC1CCC(NC(=O)C2(C)Cc3ccccc3C(=O)N2Cc2ccccc2Cl)CC1 (stereo unspecified) -2.5%, CCN(CC)c1ccc(NC(=O)Cn2c(C)c3cnn(-c4ccccc4)c(=O)c3c2C)c(C)c1 0.0309%, Cc1cc(Cl)ccc1NC(=O)CCS(=O)(=O)c1cc2c(cc1C)NC(=O)CO2 1.12%, COC(=O)c1c(-c2cccs2)csc1NC(=O)c1cc(OC)cc(OC)c1 -1.24%, O=C(NCCSc1c(-c2ccc(Br)cc2)[nH]c2ccccc12)c1ccc(S(=O)(=O)N2CCOCC2)cc1 -16.2%, Cc1ccc(CNC(=O)C(CC(C)C)N2Cc3ccccc3C2=O)cc1 (stereo unspecified) 1.23%, Clc1cccc(-n2ncc3c(NCCCc4ccccc4)ncnc32)c1 6.63%, Cc1cc(C)cc(NC(=O)C(Cc2ccccc2)N2Cc3ccccc3C2=O)c1 (stereo unspecified) -8.32%, Cc1ccc(-n2c(=O)c3sccc3n(Cc3cc(=O)n4ccccc4n3)c2=O)cc1 -3.12%, COc1ccc(C(=O)N2CCC(C(=O)Nc3ccc(OC)cc3OC)CC2)cc1 -5.33%, CCN(C(=O)Cn1nc(Cc2cccnc2)c2ccccc2c1=O)c1cc(C)ccc1C -21.5%, Cc1ccccc1C(=O)Nc1nnc(S(=O)(=O)N2CCCc3ccccc32)s1 1.08%, O=C1C(c2ccc(C(F)(F)F)cc2)=C(Nc2ccc(Cl)cc2)c2ccccc21 -18.9%, Cc1cccc(-c2cc(NC(=O)COc3ccccc3F)n(-c3ccccc3)n2)c1 -1.1%, Cc1nnsc1C(=O)Oc1ccccc1Cl 1.56%, Cc1ccc(-c2cn3c4c(=O)n(C)c(=O)n(C)c4nc3n2-c2cccc(Cl)c2)cc1 -6.8%, Cc1ccc(NC(=O)CSc2nnc(-c3cc4occc4n3C)n2-c2ccccc2C)cc1F -3.44%, CCn1c(C(=O)Nc2cc(C)cc(C)c2)cc2sc(Cl)cc21 -4.94%, COc1ccc(C(=O)N=c2sc3cc(Cl)ccc3n2C)cc1 7.08%, CCN(CC)CCOC(=O)c1ccc(NC(=O)CCn2c(=O)oc3ccccc32)cc1 0.816%, N#Cc1ccccc1NC(=O)C(=O)NCC(c1cccnc1)N1CCc2ccccc2C1 (stereo unspecified) 7.97%, CCCCN(C)c1ncnc2c1cnn2-c1cccc(Cl)c1 10.4%, CCC(=O)N1CCc2cc(S(=O)(=O)NCCC(=O)Nc3cccc(C)c3C)ccc21 1.31%, COc1cccc(CNc2ccc3c(c2)ncn3C)c1OC 7.41%, Cc1cc(SCC(=O)NCc2ccccc2)nc(=O)[nH]1 -12.3%, CCOc1ccccc1NC(=O)C1CCCN(S(=O)(=O)c2ccc3c(c2)CCCN3C(C)=O)C1 (stereo unspecified) -10.9%, COc1ccc(OC)c(CCNC(=O)C(C)n2nc(C)c3c(C)n(-c4ccc(C)cc4)nc3c2=O)c1 (stereo unspecified) -12.2%, O=C(NCc1ccccc1Br)c1ccc(-n2cnc3cccnc32)cc1 -5.15%

Potency, active:
CCc1cccc(C)c1Nc1c(-c2ccc(N(C)C)cc2)nc2ncccn12 13.1 µM
